Reference: the supplement of paper PMC12217912
This is one part of the list. The full chains were built here from the parent and the listed change. Inactive controls read about 0.05.

B1: TEV protease; numbered along this chain (parent)
chain: MGESLFKGPRDYNPISSSICHLTNESDGHTTSLYGIGFGPFIITNKHLFRRNNGTLVVQSLHGVFKVKDTTTLQQHLVDGRDMIIIRMPKDFPPFPQKLKFREPQREERICLVTTNFQTKSMSSMVSDTSCTFPSGDGIFWKHWIQTKDGQCGSPLVSTRDGFIVGIHSASNFTNTNNYFTSVPKNFMELLTNQEAQQWVSGWRLNADSVLWGGHKVFMVKPEEPFQPVKEATQL

Variants of: B1
Assay: raw area under fraction-flipped curve 0-4 h after induction (AUC4h, not background-subtracted), DNA-recorder readout of cleavage of the substrate (dimensionless); higher = more cleavage of the substrate by the protease variant
Conditions: temperature: 34 °C; time window: 0-4 h after rhamnose induction
Procedure: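 In vivo DNA recorder in E. coli TOP10(DE3) ΔrhaA at 34 °C. Each TEVp single-site mutant (parent TEVp 0) is paired with a single-site variant of the 7-mer TEVs (canonical ENLYFQ|S). The substrate sits between flexible linkers in a Bxb1-sfGFP-TEVs-SsrA fusion, so cleavage stabilises Bxb1 and speeds flipping of a recombination array, read by NGS. The value is the raw area under the fraction-flipped curve over 0-4 h after rhamnose induction (AUC4h), with ≥20 reads per time point. It is not background-subtracted; inactive controls average about 0.047.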
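Note: Bxb1 expression induced with 0.2% (w/v) L-rhamnose at OD600 near 0.5, cultures sampled hourly, flipped fraction per protease–substrate barcode pair counted by paired-end Illumina sequencing.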

| Variant | area with substrate ENAYFQS | area with substrate ENDYFQS | area with substrate ENEYFQS | area with substrate ENFYFQS | area with substrate ENGYFQS | area with substrate ENHYFQS | area with substrate ENKYFQS | area with substrate ENMYFQS | area with substrate ENQYFQS | area with substrate ENTYFQS | area with substrate ENVYFQS | area with substrate ENWYFQS | area with substrate ENCYFQS | area with substrate ENIYFQS | area with substrate ENNYFQS | area with substrate ENPYFQS | area with substrate ENSYFQS | area with substrate ENRYFQS | area with substrate ENYYFQS |
| --- | --- | --- | --- | --- | --- | --- | --- | --- | --- | --- | --- | --- | --- | --- | --- | --- | --- | --- | --- |
| D128F | 0.0593 | 0.067 | 0.0822 | 0.103 | 0.0656 | 0.0615 | 0.0516 | 0.119 | 0.0581 | 0.0578 | 0.0942 | 0.045 |  |  |  |  |  |  |  |
| D128W | 0.0787 | 0.0748 | 0.0968 | 0.0648 | 0.0521 |  |  | 0.106 | 0.0587 |  |  | 0.0648 | 0.0633 | 0.1 | 0.0838 | 0.0534 | 0.0535 |  |  |
| D128I | 0.0628 | 0.0761 | 0.0594 |  | 0.0707 |  |  |  |  | 0.0668 | 0.08 |  | 0.0608 |  |  |  | 0.0563 | 0.0568 |  |
| D128C | 0.0636 |  | 0.0595 | 0.0587 | 0.0662 | 0.064 | 0.0713 | 0.0755 | 0.0595 | 0.0561 | 0.0836 |  | 0.055 |  |  |  | 0.0479 |  |  |
| D128M | 0.0741 | 0.0617 | 0.0639 | 0.0686 | 0.0606 | 0.0598 | 0.11 | 0.117 | 0.0579 |  |  |  | 0.0665 |  |  |  | 0.0563 | 0.0528 | 0.0477 |
| D128N | 0.0624 | 0.0225 | 0.0659 | 0.0652 |  |  | 0.0595 | 0.11 | 0.0534 | 0.0617 |  |  | 0.0835 | 0.11 | 0.0522 | 0.0558 |  | 0.0692 |  |
| D128A | 0.0687 | 0.0702 | 0.0634 | 0.0667 | 0.0835 | 0.0936 | 0.0631 |  | 0.0615 | 0.07 | 0.129 |  | 0.0627 | 0.137 | 0.0428 |  | 0.0723 | 0.0539 |  |
| D128L | 0.0612 | 0.0586 | 0.0429 |  |  |  |  | 0.105 | 0.0648 | 0.0628 | 0.0903 |  | 0.0825 | 0.151 |  | 0.0585 |  |  |  |
| P96Y | 0.102 |  | 0.0624 | 0.0481 |  | 0.0875 | 0.0842 |  | 0.037 |  | 0.0723 |  | 0.0575 |  | 0.0412 | 0.0496 | 0.0898 | 0.0361 |  |
| P96K | 0.0726 |  | 0.0593 | 0.0652 | 0.0588 | 0.0731 | 0.0627 |  | 0.0569 |  | 0.0833 |  | 0.0716 | 0.0865 | 0.0681 |  | 0.0113 |  |  |
| P96L | 0.0685 | 0.0673 | 0.0563 | 0.0653 |  |  |  |  | 0.0872 | 0.0529 |  |  | 0.0659 |  |  |  | 0.0608 | 0.0639 |  |
| P96F | 0.0522 |  | 0.0484 |  | 0.0348 |  | 0.0536 |  | 0.061 | 0.0502 | 0.0567 |  |  | 0.117 | 0.0694 | 0.0682 | 0.0658 | 0.0436 | 0.0669 |
| P96S | 0.0636 |  |  | 0.0509 | 0.0768 | 0.0684 | 0.0561 | 0.0768 | 0.0643 |  |  |  | 0.0688 | 0.124 | 0.0538 |  | 0.067 | 0.0669 | 0.108 |
| P96M | 0.0377 |  | 0.0566 | 0.0545 | 0.0657 | 0.0099 | 0.0501 |  | 0.0912 | 0.048 | 0.0688 |  |  | 0.0883 | 0.0593 |  | 0.0731 | 0.0641 | 0.0426 |
| G136L | 0.0553 | 0.0687 | 0.0629 | 0.0474 | 0.0579 |  | 0.0566 | 0.0721 | 0.0637 |  | 0.0733 | 0.0039 |  | 0.108 | 0.0708 |  | 0.0724 |  |  |
| G136H | 0.0618 | 0.0563 |  | 0.0532 |  | 0.0617 | 0.0711 | 0.0817 | 0.0588 | 0.0668 |  | 0 | 0.0836 | 0.114 | 0.0467 | 0.064 | 0.0646 | 0.0459 | 0.0599 |
| G136R | 0.0435 | 0.063 | 0.0653 | 0.0604 | 0.0428 | 0.0611 | 0.0665 |  | 0.0584 |  | 0.0625 | 0.0636 | 0.0666 | 0.0981 | 0.0644 | 0.0605 | 0.0593 | 0.0538 |  |
| G136T | 0.0474 | 0.0616 | 0.0601 | 0.061 | 0.0517 | 0.0693 | 0.0606 |  | 0.0403 | 0.0665 |  | 0.0494 | 0.0675 | 0.0746 |  | 0.0428 | 0.0601 | 0.0608 |  |
| G136N | 0.0659 | 0.0705 | 0.0599 | 0.0458 |  | 0.07 | 0.0595 | 0.0979 | 0.0559 |  | 0.105 | 0.0425 | 0.0627 |  | 0.0505 | 0.0616 | 0.037 |  |  |
| G136Q | 0.0799 | 0.0575 | 0.0576 | 0.0669 | 0.0646 | 0.0205 | 0.0385 | 0.0721 | 0.052 | 0.0654 | 0.0837 | 0.0485 | 0.0596 | 0.125 | 0.056 | 0.0568 | 0.0648 | 0.0606 | 0.0589 |
| P104L | 0.044 | 0.0636 | 0.0552 | 0.0511 | 0.0582 | 0.0543 | 0.0531 | 0.0448 | 0.0545 | 0.0408 | 0.0526 |  |  | 0.0553 | 0.056 |  | 0.0546 | 0.037 |  |
| P104I | 0.0533 | 0.0521 | 0.0603 | 0.0601 | 0.0598 | 0.0271 | 0.0595 | 0.0588 | 0.0525 | 0.0569 | 0.0602 |  | 0.0485 | 0.0607 | 0.057 | 0.0644 | 0.0615 | 0.0491 |  |
| P104W | 0.0507 | 0.0505 | 0.0483 | 0.0551 |  | 0.0485 | 0.0369 | 0.0504 | 0.0554 |  | 0.0508 |  | 0.0507 |  |  | 0.0529 | 0.0541 |  | 0.0438 |
| P104D | 0.0356 | 0.0381 | 0.0467 | 0.0455 |  | 0.0512 | 0.0535 | 0.0442 |  | 0.0511 | 0.0463 | 0.0502 |  | 0.0607 | 0.0742 | 0.048 | 0.0446 | 0.0587 | 0.0525 |
| P104M | 0.0468 |  | 0.0623 | 0.0558 |  | 0.0586 | 0.0549 |  | 0.0548 |  |  |  | 0.0573 | 0.0692 | 0.0527 | 0.0504 | 0.0465 |  | 0.0395 |
| P104T | 0.043 | 0.0547 | 0.0547 | 0.0716 | 0.0593 |  |  | 0.0481 |  |  | 0.0589 |  | 0.0667 |  |  | 0.0541 |  | 0.0555 | 0.0475 |
